Measurements published in PubChem BioAssay AID1030 (National Center for Advancing Translational Sciences (NCATS), 2008).
Where “and” joins values, the source holds several entries; their conditions need not be identical. Identical values can stand only once. About 16,000 (7.3%) of roughly 220,000 compounds were called active. The inconclusive results got no clear call from the source; some entries with a clear call stand among them for comparison. Calls follow the shape of the dose curve; as a rule, active = well fitted inhibition curve with a large enough effect (not every such curve was filed as active); inconclusive = small, poorly fitted or top-dose-only effect, or another doubt; inactive = no such curve, though single readings can be large or run the other way. Potencies of inconclusive entries are left out as doubtful fits. More than one record can exist for a structure, and the calls need not agree.

These compounds were tested against Aldehyde dehydrogenase 1A1 (Homo sapiens) (UniProt P00352) (assay: qHTS Assay for Inhibitors of Aldehyde Dehydrogenase 1 (ALDH1A1)). Settings: Purified ALDH1A1, NADH fluorescence, propionaldehyde substrate; series mostly up to 75.3 µM.
Potency is read from the fitted curve at half-maximal effect; tags tell the direction and shape of the fitted curve.

Sequence of UniProt P00352 (P00352 whole entry, looked up): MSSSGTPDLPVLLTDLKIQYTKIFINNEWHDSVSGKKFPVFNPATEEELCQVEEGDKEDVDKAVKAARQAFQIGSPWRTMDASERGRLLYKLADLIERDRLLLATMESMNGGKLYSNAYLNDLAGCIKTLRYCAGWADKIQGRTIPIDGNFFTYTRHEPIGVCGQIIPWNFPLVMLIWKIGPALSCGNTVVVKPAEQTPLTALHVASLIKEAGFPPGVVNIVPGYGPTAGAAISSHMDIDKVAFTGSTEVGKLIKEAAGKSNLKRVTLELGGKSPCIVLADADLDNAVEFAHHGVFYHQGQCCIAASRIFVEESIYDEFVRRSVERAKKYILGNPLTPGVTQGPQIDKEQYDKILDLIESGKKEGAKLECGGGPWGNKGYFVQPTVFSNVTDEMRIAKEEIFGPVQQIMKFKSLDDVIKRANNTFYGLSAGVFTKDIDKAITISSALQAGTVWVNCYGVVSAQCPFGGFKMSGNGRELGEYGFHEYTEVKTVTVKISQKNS

Row | SMILES | Potency
1 | CCC1(C)Cc2ccccc2-c2nc(NCCCO)n(C)c(=O)c21 (stereo unspecified) | inconclusive [inhibitor, partial curve]
2 | COc1cc(OC)cc(C(=O)Nc2nnc(NC(=S)Nc3ccccc3)s2)c1 | active: 22.4 µM
3 | COC(=O)C1=C(C)N(Cc2ccccc2)C(=O)N[C@H]1c1ccccc1 | inactive and active: 7.94 µM
4 | CCN(CC)S(=O)(=O)c1cccc2cc(C(=O)O)c(O)cc12 | inactive
5 | CC(=O)NC(C)C12CC3CC(CC(C(=O)O)(C3)C1)C2 (stereo unspecified) | inactive
6 | COc1cccc(C(=O)N=c2sc3c(C)ccc(OC)c3n2C)c1 | inconclusive [inhibitor, single point]
7 | Cc1nc2cc(NC(=O)CCS(=O)(=O)c3ccccc3)ccc2s1 | inactive
8 | CCOC(=O)c1sc2nc(CN3CCCCC3)nc(Cl)c2c1C | inconclusive [inhibitor, single point]
9 | NS(=O)(=O)c1ccc(N/N=C/c2cn(-c3ccccc3)nc2-c2cccs2)c([N+](=O)[O-])c1 | inconclusive [inhibitor, single point]
10 | Cc1cc2c(N=O)c(NO)ccc2[nH]1 | inactive
11 | COc1cccc(Cn2c(=O)c(-c3ccc(F)cc3)nc3cncnc32)c1 | inactive
12 | CNc1nccc(-c2ccc(F)cc2)c1C#N | inconclusive [inhibitor, partial curve]
13 | COc1ccccc1CN1CCNC(=O)C1CC(=O)NCCCn1cccn1 (stereo unspecified) | active: 25.1 µM
14 | Cc1ccccc1-c1ccc2ncnc(NC3CC3)c2c1 | inactive
15 | Cc1ccc(/C=N/c2sc3c(c2C#N)CCCCC3)o1 | inconclusive [inhibitor, single point]
16 | CC1(C)Cc2c(cnn2-c2ccccc2)C(=O)/C1=N\NC(=O)c1ccccc1 | inconclusive [inhibitor, partial curve]
17 | CCC(C)N1C(=O)S/C(=C/c2ccc(Sc3nc4ccccc4[nH]3)o2)C1=O (stereo unspecified) | inconclusive [inhibitor, partial curve]
18 | CCN(CC)S(=O)(=O)c1cccc(-c2nnc(SCC(=O)NC3CCCCCC3)n2N)c1 | inactive
19 | COc1ccc(CC(=O)NCCC2=CCCCC2)cc1 | active: 23.8 µM
20 | Cc1ccc(CNS(=O)(=O)c2ccc3c(c2)n(C)c(=O)c(=O)n3C)cc1 | inconclusive [inhibitor, single point]
21 | COc1ccc(C2NC(=S)NC(C)=C2C(=O)N2CCOCC2)cc1 (stereo unspecified) | inconclusive [inhibitor, partial curve]
22 | CCCCn1c(-c2csc3c2CCC(C)C3)n[nH]c1=S (stereo unspecified) | active: 15.8 µM
23 | CCCCOC(=O)C1=C(C)Nc2ncnn2C1c1cccc(OC)c1 (stereo unspecified) | inconclusive [inhibitor, single point]
24 | O=C(O)CCc1nnc(SCC(=O)Nc2ccc(Br)cc2)[nH]c1=O | inconclusive [inhibitor, single point]
25 | CC1=NN(c2ccccc2)C(=O)/C1=C\N1CC(C)OC(C)C1 (stereo unspecified) | active: 25.1 µM
26 | COc1cc(CN(C)CCc2ccccn2)cc(OC)c1OC | inconclusive [inhibitor, single point]

Row | SMILES | Potency
27 | Cc1ccc(S(=O)(=O)/N=C2/C=C(C3C(=O)CC(C)(C)CC3=O)C(=O)c3ccccc32)cc1 | inconclusive [inhibitor, single point]
28 | CN(C)Cc1ccccc1-c1ccc2ncnc(N3CCOCC3)c2c1 | inactive
29 | CC(C)CSc1nc2c(c(=O)[nH]c(=O)n2C)n1CCc1ccccc1 | inactive
30 | CCO[C@@H]1OC(C(=O)NCc2ccccc2)=C[C@H](c2ccc3c(c2)OCO3)[C@H]1CCCO | active: 14.1 µM
31 | COC(=O)c1ccc(NC(=O)C23CC4CC(C2)CC(n2cncn2)(C4)C3)cc1 | inconclusive [inhibitor, partial curve]
32 | N#Cc1c(-c2ccccc2)c(-c2ccccc2)nn(CC(=O)NNC(=O)Nc2ccc(Cl)c(Cl)c2)c1=O | inactive
33 | CC(=O)C(=Cc1ccc(O)cc1)C(C)=O | active: 7.08 µM
34 | O=C(Cn1cc(C(F)(F)F)cc(Cl)c1=O)Nc1cc(Cl)cc(Cl)c1 | inactive
35 | O=C1Nc2ccc(S(=O)(=O)N3CCOCC3)c3cccc1c23 | inconclusive [inhibitor, partial curve]
36 | N#Cc1c(N)n(CCNC(=O)c2ccccc2)c2nc3ccccc3nc12 | inconclusive [inhibitor, partial curve]
37 | CCCn1c(NCc2cc(C)ccc2O)nc2ccccc21 | inconclusive [inhibitor, single point]
38 | CC(=O)N1CCN(C(=S)NC(=O)c2c(-c3ccccc3Cl)noc2C)CC1 | inconclusive [inhibitor, single point]
39 | O=C(NNC(=O)c1cccnc1)NC12CC3CC(CC(C3)C1)C2 | inactive
40 | Cc1cccc(-n2c(=S)[nH]c3sc4c(c3c2=O)CCc2ccccc2-4)c1 | active: 3.16 µM
41 | O=C(Nc1cccc(S(=O)(=O)N2CCCC2)c1)c1ccc2ccccc2n1 | inconclusive [inhibitor, partial curve, poor fit]
42 | O=C(/C=C/c1ccc(Cl)cc1)N(Cc1ccccc1)C1CCS(=O)(=O)C1 (stereo unspecified) | active: 12.6 µM
43 | O=C(Oc1ccc(N(Cc2cccs2)C2=NS(=O)(=O)c3ccccc32)cc1)c1ccco1 | active: 28.2 µM
44 | Cc1ccc(NS(=O)(=O)c2ccc(CCC(=O)N3CCOCC3)cc2)cc1 | inconclusive [inhibitor, full curve]
45 | CCC(C)C(=O)OC1C2CC3=C4CC(=O)OC(c5ccoc5)[C@]4(C)CCC3[C@@](C)(C2=O)C(CC(=O)OC)C1(C)C (stereo partly specified) | inactive
46 | CC1CC(C)(C)NC(=S)N1CCCC(=O)N1CCN(c2ccccc2F)CC1 (stereo unspecified) | inconclusive [inhibitor, single point]
47 | O=C(Nc1ccc(S(=O)(=O)N2CCc3ccccc32)cc1)c1ccc2c(c1)OCO2 | active: 17.8 µM
48 | Cc1ccc(N(CC(=O)Nc2ccc(-c3nc4ccc(C)cc4s3)cc2)S(C)(=O)=O)cc1 | inconclusive [inhibitor, partial curve]
49 | CC(=O)NCCNc1nc(-c2ccccc2CN(C)C)nc2ccccc12 | inactive
50 | CC(=O)c1ccc(OCCCC(=O)Nc2cccc(S(=O)(=O)N(C)C)c2)cc1 | inconclusive [inhibitor, single point]
51 | Cc1c(NC(=S)NC(=O)CCc2ccccc2)c(=O)n(-c2ccccc2)n1C | inconclusive [inhibitor, single point]
52 | CC1(C(=O)O)CCC(C(=O)N2CCOCC2)C1(C)C (stereo unspecified) | inconclusive [inhibitor, single point]

Row | SMILES | Potency
53 | CC1CCc2sc(C(=O)Nc3ccc(C(N)=O)cc3)cc2C1 (stereo unspecified) | inconclusive [inhibitor, single point]
54 | Cn1cnnc1Sc1ccc(C(F)(F)F)cc1[N+](=O)[O-] | inactive
55 | O=C(CSc1nc2ccccc2s1)Nc1cc(C(=O)O)cc(C(=O)O)c1 | inactive
56 | O=C(O)COc1ccc(S(=O)(=O)c2ccc(OCC(=O)O)cc2)cc1 | inconclusive [inhibitor, partial curve]
57 | CC(=O)c1cc(C#N)c(NCCCN(C)C)nc1C | inconclusive [inhibitor, single point]
58 | CC(=O)Nc1ccc(Oc2cnc3ccccc3n2)cc1 | inactive
59 | COC(=O)N/N=C/c1sc(N2CCCCC2)nc1-c1cccs1 | active: 25.1 µM
60 | Cc1cccc(NC(=S)N(Cc2cccs2)Cc2cc3cc(C)cc(C)c3[nH]c2=O)c1 | inactive
61 | COc1ccc(/C=N/NC(=O)c2cccc(C(F)(F)F)c2)cc1 | inactive
62 | CCOc1ccccc1-n1nnnc1SC(C)C(=O)OC (stereo unspecified) | inconclusive [inhibitor, single point]
63 | CCC(C)(C)n1nnnc1CN1CCN(c2ccc(OC)cc2)CC1 | inconclusive [inhibitor, partial curve]
64 | O=[N+]([O-])c1cc(/C=N/NC(=S)Nc2ccccc2Cl)ccc1Cl | inactive
65 | S=C(Nc1cccc2ccccc12)NC1CCCCC1 | inconclusive [inhibitor, single point]
66 | O=C(NC1CC1)c1cccc(Nc2ccc(-c3ccc4c(c3)OCCO4)nn2)c1 | inconclusive [inhibitor, partial curve]
67 | O=C(NC12CC3CC(CC(C3)C1)C2)c1ccc(-c2ccc(Br)cc2)o1 | inconclusive [inhibitor, single point]
68 | COc1ccc(-n2cc(CNCc3cnc4ccccn34)c(-c3cccc(F)c3)n2)cc1 | inconclusive [inhibitor, partial curve]
69 | Cc1ccc(CN(Cc2ccco2)C(=S)Nc2ccccc2C)cc1 | inconclusive [inhibitor, single point]
70 | Cn1c(SCc2ccccc2)nnc1-c1ccco1 | inactive
71 | O=C(Cn1cncn1)NCCC(c1ccccc1)c1ccccc1 | inactive
72 | CCC(c1nnnn1Cc1ccccc1)N1CCN(C(=O)c2ccco2)CC1 (stereo unspecified) | active: 6.31 µM
73 | Cc1nnc(NCCc2ccccc2)n(N)c1=O | inactive
74 | COc1cc(OC)cc(C(=O)OCc2cc3ccccc3[nH]c2=O)c1 | inconclusive [inhibitor, single point]
75 | CCOC(=S)N/C(=N\S(=O)(=O)c1ccccc1)c1ccccc1 | active: 11.2 µM
76 | CCN(CC)CCNc1nc(-c2ccccc2)c2c(c1C#N)CC(C)(C)OC2 | inconclusive [inhibitor, single point]
